Measurements taken from PubChem BioAssay AID488969 (Vanderbilt High Throughput Screening Facility, 2010).
Over roughly 110,000 compounds, “z-score” has its median near -0.1; the highest 2% begin near 2. The list shows a part of the results.

Biological target: Metabotropic glutamate receptor 8 (Rattus norvegicus) (UniProt P70579)
Assay: mGluR8 Gi/Go-coupled signaling modulation – cell-based, rat, thallium flux, HTS, primary screen (AID 488969)
Conditions: HEK293 rat mGluR8, GIRK (G protein-gated inwardly rectifying potassium channel) thallium flux, FluoZin2; at 10 µM; stronger effect = higher value; submaximal glutamate (EC20) added with thallium

Chain of UniProt P70579 (P70579 whole entry, looked up): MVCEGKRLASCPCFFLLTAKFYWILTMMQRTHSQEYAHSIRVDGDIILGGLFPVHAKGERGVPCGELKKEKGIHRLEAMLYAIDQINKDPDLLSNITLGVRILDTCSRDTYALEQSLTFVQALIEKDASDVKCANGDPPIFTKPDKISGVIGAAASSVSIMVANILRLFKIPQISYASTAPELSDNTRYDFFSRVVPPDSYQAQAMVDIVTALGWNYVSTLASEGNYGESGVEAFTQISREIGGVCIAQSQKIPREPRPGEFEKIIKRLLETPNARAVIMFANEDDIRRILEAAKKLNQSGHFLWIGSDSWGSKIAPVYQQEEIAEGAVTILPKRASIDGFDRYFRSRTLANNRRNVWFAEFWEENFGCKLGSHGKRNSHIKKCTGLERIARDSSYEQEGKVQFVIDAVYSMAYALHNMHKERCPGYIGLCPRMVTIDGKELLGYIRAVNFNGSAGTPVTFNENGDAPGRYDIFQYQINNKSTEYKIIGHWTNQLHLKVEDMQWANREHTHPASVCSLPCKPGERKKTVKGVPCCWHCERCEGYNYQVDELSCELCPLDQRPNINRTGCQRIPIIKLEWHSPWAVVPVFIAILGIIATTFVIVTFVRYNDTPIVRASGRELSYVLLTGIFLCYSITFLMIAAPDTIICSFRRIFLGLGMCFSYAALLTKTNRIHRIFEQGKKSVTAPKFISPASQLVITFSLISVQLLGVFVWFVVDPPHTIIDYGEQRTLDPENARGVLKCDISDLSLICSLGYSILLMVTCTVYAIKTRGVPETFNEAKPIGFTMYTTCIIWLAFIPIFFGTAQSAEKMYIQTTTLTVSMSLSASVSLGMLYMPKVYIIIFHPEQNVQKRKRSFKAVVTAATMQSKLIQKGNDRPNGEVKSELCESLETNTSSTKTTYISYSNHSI

SMILES | z-score
COc1ccc(NC(C)=O)cc1CNC(=O)COc1c(C)c(C)cc(C)c1C | -0.0399
CCCc1ncc(C(=O)c2ccc(OC)cc2)n1C | -0.0109
CC1=CC(C)C2C(=O)N(CCCN(C)C)C(=O)C2C1 (configuration not stated) | 0.122
Cc1ccccc1CS(=O)(=O)CC1(O)CCN(C(=O)c2cccc(C(F)(F)F)c2)CC1 | 0.166
O=C(O)c1cccc(-c2nnn(Cc3ccccc3)n2)c1 | -0.942
Cc1ccc(S(=O)(=O)CC2CSc3nc(N)cc(=O)n32)cc1 (configuration not stated) | 0.151
CCCCn1cc(SCC(=O)O)c2ccccc21 | -0.488
CCOC(=O)C(CSCC(=O)c1ccc(Cl)cc1Cl)NC(=O)OC(C)(C)C (configuration not stated) | 0.504
COc1ccccc1OCC(=O)Nc1ccc(S(=O)(=O)Nc2cc(C)nc(C)n2)cc1 | 0.12
CC1CCN(CCC(=O)Nc2ccc(Br)cc2)CC1 | 0.106
Cc1ccc(C(=O)COC(=O)CNS(=O)(=O)c2ccccc2)cc1[N+](=O)[O-] | 0.0421
CCOC(=O)c1c(/N=C/c2cc([N+](=O)[O-])ccc2O)sc(C)c1C | 0.177
O=C(NCCSCc1ccc(Cl)cc1Cl)c1ccc(CN2CCOCC2)cc1 | -0.33
CCSc1nnc(NC(=O)CSc2nnc(Cc3cccn3C)n2-c2ccc(C)cc2)s1 | -0.0856
CCNC(=O)CSc1nnc(C2CC2)n1-c1ccccc1 | -0.318
COC(=O)Oc1nsnc1N1CCOCC1 | 1.87
Cc1ccc2c(c1)N=C(c1ccc(F)cc1)CO2 | -0.205
CCOc1ccc(NC(=O)CN2CCN(CC(=O)c3ccc(OCC)cc3)CC2)cc1 | -0.33
COC(=O)c1ccc(NC(=O)CSc2nncn2C)cc1 | 0.0719
Cc1cc(NCCOCCO)n2ncc(-c3ccc(Cl)cc3)c2n1 | -1.72
CS(=O)(=O)N1CCN(C(=O)c2ccccc2)C1 | -0.2
Cc1ccnc(SCc2cc(=O)c(OC(=O)c3ccc(Br)o3)co2)n1 | -0.552
CCOc1cc(S(=O)(=O)n2nc(C)cc2C)ccc1F | 0.162
CC(C)(C)c1nc(NCC2CCCO2)c2nnn(Cc3ccccc3)c2n1 (configuration not stated) | -0.274

SMILES | z-score
CCOC(=O)c1ccc(Nc2ccc(-c3ccc(OC)c(OC)c3)nn2)cc1 | -1.32
COc1ccccc1N(C(=O)CNC(=O)c1ccco1)C(C(=O)NC1CCCC1)c1ccncc1 (configuration not stated) | 0.258
Oc1ccc(/C=N/NC2=NCCCCC2)c(O)c1 | -0.161
CC(C)C(C)NC(=O)COc1ccc(Sc2ccc(OCC(=O)NC(C)C(C)C)cc2)cc1 (configuration not stated) | 0.547
COCCCNC(=O)c1ccc2c(=O)n(CC3CCCO3)c(=S)[nH]c2c1 (configuration not stated) | 0.247
CCOc1ncccc1C(=O)OCC(=O)c1cc(C)n(Cc2ccco2)c1C | -0.0219
O=C(c1ccc(CS(=O)(=O)c2ccc(Br)cc2)o1)N1CCN(C2CCCCC2)CC1 | -0.654
CCOc1ccc(C2C(C(=O)c3ccco3)=C(O)C(=O)N2CCCn2ccnc2)cc1 (configuration not stated) | -0.458
COCCn1c(COC)nc2ccccc21 | 0.868
COc1ccc2nc(Nc3nc4cc5c(cc4s3)OCCO5)sc2c1 | 0.773
COc1ccc(S(=O)(=O)N(C)CC(=O)NCc2cccnc2)cc1Cl | 0.0929
CC1CC(C)CN(C(=O)COc2ccc(-c3nnco3)cc2)C1 (configuration not stated) | -0.47
COc1cccc(C(=O)N(c2ccc(OC)cc2OC)C2C=CS(=O)(=O)C2)c1 (configuration not stated) | 0.12
CCN(CC)S(=O)(=O)c1ccc(C)c(NC(=O)COc2ccc3c(C)cc(=O)oc3c2)c1 | -0.0267
COc1ccc(N2CCN(c3nc(=S)n(-c4ccccc4)c(C)c3C(C)=O)CC2)cc1 | -0.322
CC1(C)CC(=O)C(C=Nc2ccncc2)=C(O)C1 | -0.0532
CC(NC(=O)CCNC(=O)c1ccccc1Cl)C1CC2CCC1C2 (configuration not stated) | 0.269
COc1cccc(C(=O)Nn2c(C)nnc2-n2nc(C)cc2C)c1 | 0.454
CCN(CC)CCOc1ccc(Br)cc1 | 0.733
CCOc1ccc(NC(=O)CSC2=C(C#N)C(c3ccc4c(c3)OCO4)CC(=O)N2)cc1 (configuration not stated) | -0.0625
Clc1ccc(-c2csc3ncnc(N4CCc5ccccc5C4)c23)cc1 | 0.0998
COc1ccc(C(=O)/C=C/Nc2cccc(C)n2)cc1OC | 0.964
CCOCCOC(=O)COc1ccc2c(-c3ccccc3)cc(=O)oc2c1 | -1.15
OCCCNC(=S)Nc1ccc(Oc2ccccc2)cc1 | -0.00349

SMILES | z-score
S=C(Nc1ccc(Cl)c(Cl)c1)NC1CCN(Cc2ccccc2)CC1 | 0.466
Cc1ccccc1N1CCN(Cc2c[nH]c3ccccc23)CC1 | 1.32
O=C1CCCN1c1ccc(S(=O)(=O)Oc2ccc(Cl)cc2)cc1[N+](=O)[O-] | 0.0274
CCCOc1ccc(NC(=O)C2CCCNC2=O)cc1 (configuration not stated) | -0.128
Cc1oc(-c2ccccc2)cc1C(=O)Nc1ccc(N(C)C)cc1 | -0.0797
COc1ccc(C2=CC(=O)OC3(CCCC3)O2)cc1 | -0.561
COc1cc(C(=O)N(Cc2ccco2)Cc2cc3ccccc3[nH]c2=O)cc(OC)c1OC | -0.671
CCOC(=O)C(C)Sc1ncc(OC)c(=O)[nH]1 (configuration not stated) | -0.05
S=C1NCCc2ccccc2C1c1ccccc1 (configuration not stated) | -0.276
COc1cc(C)nc(N2CCCC(C(=O)NCC(C)C)C2)n1 (configuration not stated) | -0.0863
Cc1nn(Cc2ccccc2)c(C)c1NC(=O)CSc1nnc(-c2cc(Cl)ccc2O)n1C | -0.0999
Cc1cccc2cc3c(NC(=O)c4ccccn4)nn(C)c3nc12 | -0.0148
O=C(O)CC(NCc1ccco1)C(=O)OCC1CCCO1 (configuration not stated) | -0.312
COc1ccc(C(=O)/C=C/Nc2cc(C)on2)cc1 | 0.165
CCOc1ccc(CC(=NCCO)C2=C(O)CC(C)(C)CC2=O)cc1OCC | -0.189
Cc1cc(C)c(S(=O)(=O)Nc2ccccc2-c2ccccc2)c(C)c1 | 0.652
COc1ccc(C(=O)NCc2oc(-c3ccccc3)cc2C(=O)O)cc1 | -0.64
CCn1c(SCC(=O)N/N=C/C(C)=C/c2ccco2)nnc1-c1ccccc1 | -0.0753
Cc1cc(C(F)(F)F)nn1CC(=O)Nc1ccc(Br)c2cccnc12 | -0.094
CC(SCc1ccccc1)C(=O)Nc1ccc2c(c1)OCO2 (configuration not stated) | -0.422
Cc1cc(=O)oc2n[nH]c(-c3ccccc3)c12 | -0.525
O=[N+]([O-])c1ccccc1/C=N/n1c(C2CCCCC2)n[nH]c1=S | 1.05
COCCCNC(=O)CNC(=S)N(Cc1ccc(F)cc1)C1CCCCC1 | 0.433
CSc1nnc(-c2sc3cc(Cl)ccc3c2Cl)n1C | -1.25
